# Among all 39,000 compounds or so, about 220 (0.56%) showed activity. This is one part of the list.
# Tested on: Escherichia coli K-12 BW25113
# Test: relative growth (OD600 normalised to plate interquartile mean) (fraction); higher = less growth inhibition, active = 0.2 or less
# Settings: 50 µM; LB; incubation time: overnight (16-24 h)
# 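Note: static incubation at 37 °C against the wild-type strain, values averaged over two biological replicates.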
row,Compound,relative growth
1,CC(C)NC(=O)N(C)C[C@H]1Oc2cc(C#Cc3ccccn3)ccc2S(=O)(=O)N([C@H](C)CO)C[C@@H]1C,inactive: 1.02
2,O=C(C[C@@H]1C=C[C@H](NS(=O)(=O)c2ccc(F)cc2)[C@H](CO)O1)N1CCC(Cc2ccccc2)CC1,inactive: 0.961
3,O=C1NC(=O)/C(=C\c2ccccc2)N1,inactive: 1.01
4,C[C@@H]1CN([C@H](C)CO)C(=O)c2cc(NC(=O)CCCCCC(=O)Nc3ccccc3N)ccc2O[C@@H](C)CCCCO[C@H]1CN(C)Cc1ccc(Cl)c(Cl)c1,inactive: 1.01
5,CC(C)NC(=O)N(C)C[C@@H]1OCCCC[C@H](C)Oc2ccc(NC(=O)C3CCCCC3)cc2C(=O)N([C@H](C)CO)C[C@@H]1C,inactive: 0.999
6,C[C@@H]1CCCCO[C@@H](CN(C)Cc2ccncc2)[C@@H](C)CN([C@@H](C)CO)C(=O)c2cc(NC(=O)Nc3ccc4c(c3)OCO4)ccc2O1,inactive: 1
7,COc1ccc(NC(=O)N(C)C[C@@H]2OCc3ccccc3-c3c(n(C)c4ccccc34)C(=O)N([C@H](C)CO)C[C@H]2C)cc1,inactive: 0.949
8,COc1cccc(C#Cc2ccc3c(c2)O[C@@H](CN(C)S(=O)(=O)c2ccccc2F)[C@H](C)CN([C@H](C)CO)S3(=O)=O)c1,inactive: 1.03
9,O=C(O)[C@@H]1CCCCO1,inactive: 0.994
10,C[C@H](CO)N1C[C@H](C)[C@H](CN(C)S(=O)(=O)c2cn(C)cn2)Oc2c(NS(C)(=O)=O)cccc2C1=O,inactive: 0.983
11,CN(C)CCCNC(=O)C[C@@H]1CC[C@@H]2[C@H](COC[C@@H](O)CN2C(=O)Nc2cc(Cl)cc(Cl)c2)O1,inactive: 0.972
12,C[C@@H]1CCCCO[C@@H](CN(C)Cc2ccncc2)[C@@H](C)CN([C@@H](C)CO)C(=O)c2cc(NC(=O)c3ccccc3)ccc2O1,inactive: 0.97
13,C[C@@H]1CN([C@H](C)CO)C(=O)Cc2cc(NC(=O)Nc3ccc4c(c3)OCO4)ccc2O[C@H]1CN(C)Cc1ccc(Oc2ccccc2)cc1,inactive: 0.991
14,C[C@@H]1CN([C@H](C)CO)C(=O)CCCn2nncc2CO[C@@H]1CN(C)S(=O)(=O)c1ccc(-c2ccccc2)cc1,inactive: 1
15,Cc1noc(C)c1NC(=O)Nc1ccc2c(c1)C(=O)N([C@@H](C)CO)C[C@@H](C)[C@H](CN(C)C(=O)Nc1c(C)noc1C)OCCCC[C@@H](C)O2,inactive: 0.958
16,C[C@@H]1O[C@@H](O[C@@H]2[C@@H](O)[C@@H](O[C@@H]3O[C@@H](CO)[C@H](O)[C@H]3O)[C@H](OC(=O)[C@]34CCC(C)(C)C[C@H]3C3=CC[C@H]5[C@@]6(C)C[C@H](O)[C@H](O[C@@H]7O[C@@H](C)[C@H](O)[C@@H](O[C@@H]8OC[C@@H](O)[C@H](O)[C@H]8O[C@@H]8O[C@H](CO)[C@@H](O)[C@H](O)[C@H]8O)[C@H]7O)[C@@](C)(CO)[C@@H]6CC[C@@]5(C)[C@]3(C)C[C@H]4O)O[C@H]2C)[C@H](O)[C@H](O)[C@H]1O,inactive: 1.01
17,Cc1noc(C)c1NC(=O)Nc1ccc2c(c1)CC(=O)N([C@@H](C)CO)C[C@@H](C)[C@H](CN(C)C(=O)Nc1ccc(C(F)(F)F)cc1)O2,inactive: 0.986
18,C[C@@H]1CN([C@@H](C)CO)C(=O)Cc2cc(NS(=O)(=O)c3ccc(F)cc3)ccc2O[C@H]1CN(C)S(=O)(=O)c1ccc(F)cc1,inactive: 0.993

row,Compound,relative growth
1,C[C@H](CO)N1C[C@H](C)[C@H](CN(C)CC2CCOCC2)Oc2ncc(C#Cc3ccc(F)cc3)cc2C1=O,inactive: 0.995
2,O=C(/C=C/c1ccc(O)c(O)c1)O[C@@H]1O[C@H](CO)[C@@H](O)[C@H](O)[C@H]1O,inactive: 1.01
3,COc1ccc2c3c(n(c2c1)C)[C@@H](CO)N(C[C@]13CN(C1)C(=O)c1ccccn1)S(=O)(=O)c1ccc(cc1)C,inactive: 1.03
4,CCCC(=O)Nc1ccc2c(c1)OC[C@@H](C)N(Cc1ccc(-c3ccccn3)cc1)C[C@@H](C)[C@@H](OC)CN(C)C2=O,inactive: 1
5,COc1ccc(NC(=O)N(C)C[C@@H]2OCCCC[C@@H](C)Oc3ccc(NS(=O)(=O)c4ccc(F)cc4)cc3C(=O)N([C@H](C)CO)C[C@@H]2C)cc1,inactive: 0.979
6,CCS(=O)(=O)N1C[C@]2(C1)CN([C@@H](CO)c1c2c2ccc(cc2n1C)OC)C(=O)Nc1cccc(c1)F,inactive: 1.01
7,Cn1cnc(S(=O)(=O)N[C@H]2CC[C@H](CC(=O)Nc3ccccc3)O[C@H]2CO)c1,inactive: 1
8,CC(C)NC(=O)N(C)C[C@@H]1Oc2ccc(NC(=O)Cc3ccccc3)cc2CC(=O)N([C@H](C)CO)C[C@@H]1C,inactive: 0.982
9,CC1CCC2(OC1)OC1CC3C4CC=C5CC(O)CCC5(C)C4CCC3(C)C1C2C (stereo unspecified),inactive: 0.933
10,OCc1ccccc1,inactive: 1.03
11,C[C@H]1CCCCO[C@@H](CN(C)C)[C@@H](C)CN([C@@H](C)CO)C(=O)c2cc(NC(=O)Nc3cccc4ccccc34)ccc2O1,inactive: 0.99
12,C[n+]1ccc(CCCO)cc1,inactive: 0.983
13,COc1ccc(S(=O)(=O)N(C)C[C@H]2OCCCC[C@@H](C)Oc3ccc(NS(=O)(=O)c4cn(C)cn4)cc3C(=O)N([C@H](C)CO)C[C@H]2C)cc1,inactive: 0.979
14,CN1C(=O)c2cc(NS(=O)(=O)c3cccc(F)c3)ccc2OC[C@@H]2O[C@H](CC(=O)NCCN3CCCCC3)CC[C@@H]21,inactive: 1.01
15,CC(C)NC(=O)N(C)C[C@@H]1OCCCC[C@@H](C)Oc2ccc(NC(=O)Nc3ccc(F)cc3)cc2C(=O)N([C@H](C)CO)C[C@@H]1C,inactive: 1.03
16,C[C@@H]1CN([C@H](C)CO)C(=O)c2cccc(NS(=O)(=O)c3ccccc3)c2O[C@@H]1CN(C)Cc1ccc(Cl)c(Cl)c1,inactive: 1.01
17,C=CCC[C@@H](Cc1ccc(F)cc1)C(=O)OC[C@@H](Cc1c[nH]c2ccccc12)NC(=O)[C@@H](CC=C)CC(=O)N(CCO)Cc1ccccc1,inactive: 1.1
18,COc1ccc(NC(=O)N(C)C[C@H]2OCCCC[C@H](C)Oc3ccc(NC(=O)c4ccccc4)cc3C(=O)N([C@@H](C)CO)C[C@@H]2C)cc1,inactive: 0.992

# From the supplement of paper PMC9446081
